# Data published in the supplement of paper PMC9446081.
# About 220 (0.56%) of roughly 39,000 compounds showed activity. The list shows a part of the results.
# Test system: Escherichia coli K-12 BW25113
# Test: relative growth (OD600 normalised to plate interquartile mean) (fraction); higher = less growth inhibition, active = 0.2 or less
# Conditions: 50 µM; LB; incubation time: overnight (16-24 h)
# 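Also: static incubation at 37 °C against the wild-type strain, values averaged over two biological replicates.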
row,SMILES,relative growth
1,COc1ccccc1-c1ccc2c(c1)O[C@H](CN(C)S(=O)(=O)c1ccccc1)[C@@H](C)CN([C@H](C)CO)S2(=O)=O,inactive: 1.05
2,Cn1nccc1-c1cccc(CN)c1,inactive: 1.01
3,Cc1ccc(S(=O)(=O)Nc2ccc3c(c2)C(=O)N([C@@H](C)CO)C[C@H](C)[C@@H](CN(C)Cc2ccc(C(=O)O)cc2)OCCCC[C@H](C)O3)cc1,inactive: 1.03
4,COc1ccc(S(=O)(=O)Nc2ccc3c(c2)CC(=O)N([C@H](C)CO)C[C@H](C)[C@H](CN(C)S(=O)(=O)c2ccc(C)cc2)O3)cc1,inactive: 1.03
5,C[C@H](CO)N1C[C@H](C)[C@H](CN(C)Cc2ccc(Oc3ccccc3)cc2)Oc2c(NC(=O)Nc3ccc(F)cc3)cccc2C1=O,inactive: 0.947
6,Cc1ccc(OC(=O)N(C)C[C@H]2OCc3ccccc3-c3ccccc3C(=O)N([C@@H](C)CO)C[C@@H]2C)cc1,inactive: 0.993
7,C[C@@H]1CN([C@@H](C)CO)C(=O)c2cc(NS(=O)(=O)c3ccc(F)cc3)ccc2O[C@@H](C)CCCCO[C@H]1CN(C)C(=O)c1ccccc1,inactive: 1.02
8,O=C(NC[C@H]1Cn2nncc2CO1)c1ccc[nH]1,inactive: 1.02
9,O=C(O)C[C@H]1CC[C@H]2[C@@H](COC[C@@H](O)CN2S(=O)(=O)c2ccc(F)cc2)O1,inactive: 0.952
10,CC(C)n1nnc(CC(=O)NN)n1,inactive: 0.977
11,COc1cc(-c2coc3cc(OCc4ccccc4)c(OC)c(O)c3c2=O)cc(OCc2ccccc2)c1OC,inactive: 1.05
12,NC1CCCCC1N.O=C1[O][Pt][O]C1=O (configuration not stated),inactive: 0.993
13,COc1ccc(NC(=O)N(C)C[C@@H]2Oc3c(NC(=O)Nc4ccc(C(F)(F)F)cc4)cccc3C(=O)N([C@H](C)CO)C[C@@H]2C)cc1,inactive: 0.955
14,C[C@H]1CN([C@@H](C)CO)C(=O)CCCn2cc(nn2)CO[C@@H]1CN(C)S(=O)(=O)c1ccc(-c2ccccc2)cc1,inactive: 0.985
15,O=C(C[C@@H]1CC[C@@H]2[C@H](COC[C@@H](O)CN2S(=O)(=O)c2cccc(Cl)c2)O1)NCc1ccncn1,inactive: 0.991
16,COc1ccc(S(=O)(=O)N(C)C[C@@H]2Oc3cc(C#CC4CC4)ccc3S(=O)(=O)N([C@@H](C)CO)C[C@H]2C)cc1,inactive: 0.998
17,CN(C)CC(=O)N[C@@H]1CC[C@H](CC(=O)NCCN2CCCCC2)O[C@H]1CO,inactive: 1.03
18,C[C@@H]1CN([C@H](C)CO)C(=O)c2cccc(NC(=O)Nc3ccc(F)cc3)c2O[C@H]1CN(C)CC1CCCCC1,inactive: 0.898
19,C[C@@H]1CN([C@H](C)CO)C(=O)c2cc(NC(=O)Cn3cnnn3)ccc2O[C@@H]1CN(C)S(=O)(=O)c1ccc(F)cc1,inactive: 0.978
20,CC(C)NC(=O)Nc1ccc2c(c1)CC(=O)N([C@H](C)CO)C[C@H](C)[C@H](CN(C)S(=O)(=O)c1cn(C)cn1)O2,inactive: 1.02
21,CC(C)NC(=O)N(C)C[C@H]1OCc2cn(nn2)CCCC(=O)N([C@H](C)CO)C[C@@H]1C,inactive: 1.03

row,SMILES,relative growth
1,C=CCOC(=O)N(C)C[C@@H]1Oc2ccc(NC(=O)OCC3c4ccccc4-c4ccccc43)cc2C(=O)N([C@H](C)CO)C[C@H]1C,inactive: 1.01
2,C[C@H]1CN([C@@H](C)CO)C(=O)Cc2cc(NC(=O)Cc3ccccc3)ccc2O[C@@H]1CN(C)C(=O)Nc1ccc(C(F)(F)F)cc1,inactive: 1.04
3,Cc1cc(=O)nc2[nH][nH]c(=S)n12,inactive: 0.993
4,CC(C)(O)c1cn(-c2ccc(-c3cc(F)c(CO)c(S(C)(=O)=O)c3)cc2F)c(C(C)(C)c2c(Cl)cccc2Cl)n1,inactive: 1.03
5,Cc1ccc(S(=O)(=O)N(C)C[C@H]2Oc3c(NC(=O)NC(C)C)cccc3C(=O)N([C@@H](C)CO)C[C@@H]2C)cc1,inactive: 1.01
6,C[C@H](CO)N1C[C@H](C)[C@@H](CN(C)S(=O)(=O)c2cn(C)cn2)Oc2ccc(NC(=O)CCN3CCOCC3)cc2C1=O,inactive: 0.95
7,C[C@@H]1CN([C@@H](C)CO)C(=O)c2cc(Br)cnc2O[C@@H]1CN(C)S(=O)(=O)c1ccc(F)cc1,inactive: 0.971
8,C[C@@H]1CCCCO[C@@H](CN(C)C(=O)NC2CCCCC2)[C@H](C)CN([C@H](C)CO)C(=O)c2cc(NC(=O)NC3CCCCC3)ccc2O1,inactive: 1.01
9,CC(C)C#Cc1ccc2c(c1)O[C@H](CN(C)S(=O)(=O)c1cn(C)cn1)[C@H](C)CN([C@@H](C)CO)S2(=O)=O,inactive: 1.02
10,C[C@H]1CN([C@@H](C)CO)C(=O)c2c(c3ccccc3n2C)-c2ccccc2CO[C@H]1CN(C)C(=O)c1ccc(F)cc1,inactive: 1.02
11,CN(C)CCN1C[C@H]2OCCN(Cc3cnn(C)c3)[C@H]2C1,inactive: 1.01
12,CC(=O)OCC(=O)C12OC3(CCCC3)OC1CC1C3CCC4=CC(=O)C=CC4(C)C3(F)C(O)CC12C (configuration not stated),inactive: 0.893
13,C[C@@H]1CCCCO[C@H](CN(C)Cc2ccc3c(c2)OCO3)[C@@H](C)CN([C@@H](C)CO)C(=O)c2cc(NC(=O)Nc3ccc(C(F)(F)F)cc3)ccc2O1,inactive: 1.02
14,COc1ccc(NC(=O)N(C)C[C@H]2OCCCC[C@@H](C)Oc3ccc(NC(=O)NC4CCCCC4)cc3C(=O)N([C@H](C)CO)C[C@@H]2C)cc1,inactive: 1.03
15,C[C@@H]1CN([C@H](C)CO)C(=O)c2cc(NC(=O)C3CCCCC3)ccc2O[C@H]1CN(C)S(=O)(=O)c1cn(C)cn1,inactive: 1.01
16,C[C@@H]1CCCCO[C@@H](CN(C)S(=O)(=O)c2cn(C)cn2)[C@@H](C)CN([C@@H](C)CO)C(=O)c2cc(NS(=O)(=O)c3ccccc3)ccc2O1,inactive: 1.01
17,C[C@H](CO)N1C[C@H](C)[C@H](CN(C)Cc2ccc3c(c2)OCO3)OCCCC[C@H](C)Oc2ccc(NC(=O)Nc3ccc(F)cc3)cc2C1=O,inactive: 0.996
18,C[C@@H]1CCCCO[C@@H](CN(C)S(=O)(=O)c2ccc(F)cc2)[C@H](C)CN([C@H](C)CO)C(=O)c2cc(NC(=O)Nc3cccc4ccccc34)ccc2O1,inactive: 1.05
19,CCC(=O)N1C[C@]2(C1)CN([C@@H](CO)c1[nH]c3cc(ccc3c12)OC)S(=O)(=O)C,inactive: 0.971
20,C[C@H](NCc1ccc(OCC(N)=O)cc1)C(N)=O,inactive: 0.983
21,Cc1noc(C)c1S(=O)(=O)N(C)C[C@@H]1Oc2ccc(NC(=O)NC3CCCCC3)cc2CC(=O)N([C@@H](C)CO)C[C@@H]1C,inactive: 1.01

row,SMILES,relative growth
1,C[C@H](CO)N1C[C@H](C)[C@H](CN(C)C(=O)Nc2ccc3c(c2)OCO3)Oc2c(NC(=O)c3ccc(-c4nccs4)cc3)cccc2C1=O,inactive: 0.997
2,C[C@H](CO)N1C[C@H](C)[C@@H](CN(C)Cc2ccc3c(c2)OCO3)Oc2c(NC(=O)c3cnccn3)cccc2C1=O,inactive: 0.969
3,C[C@@H]1CCCCO[C@@H](CN(C)C(=O)Nc2ccccc2)[C@@H](C)CN([C@H](C)CO)C(=O)c2cc(NC(=O)Cc3ccccc3)ccc2O1,inactive: 1.01
4,C[C@@H]1CN([C@@H](C)CO)C(=O)c2cc(NC(=O)Cc3ccccc3)ccc2O[C@@H](C)CCCCO[C@@H]1CN(C)Cc1ccc(C(=O)O)cc1,inactive: 1.02
5,CO[C@@H]1CN(C)C(=O)c2cc(NS(C)(=O)=O)ccc2OC[C@H](C)N(C(=O)C2CCCCC2)C[C@H]1C,inactive: 1
6,CC(C)C[C@@H]1NC(=O)[C@@H](C(C)C)NC(=O)[C@@H]2CCCN2C(=O)[C@@H](CC(=O)O)NC(=O)[C@@H](Cc2c[nH]c3ccccc23)NC1=O,inactive: 1.01
7,COc1cccc(S(=O)(=O)N(C)C[C@H]2Oc3ncc(C#CC(C)C)cc3C(=O)N([C@@H](C)CO)C[C@@H]2C)c1,inactive: 1.01
8,CC(CCc1ccccc1)NCC(O)c1ccc(O)c(C(N)=O)c1.Cl (configuration not stated),inactive: 1.09
9,COc1ccc(S(=O)(=O)Nc2ccc3c(c2)C(=O)N([C@@H](C)CO)C[C@@H](C)[C@@H](CN(C)C(=O)Nc2ccc(C(F)(F)F)cc2)OCCCC[C@@H](C)O3)cc1,inactive: 1
10,Cn1cc(C(=O)N2CCN(CC(N)=O)CC2)c2nn(-c3ccccc3)c(=O)c-2c1,inactive: 0.983
11,C[C@H](CO)N1C[C@H](C)[C@H](CN(C)Cc2ccc(Oc3ccccc3)cc2)Oc2c(NC(=O)c3ccc(-c4nccs4)cc3)cccc2C1=O,inactive: 1.02
12,C/C=C/C(=O)N1CCC=CC1=O,inactive: 0.973
13,Cn1c(=O)c2c(ncn2CC(=O)N2CCN(c3ccccc3)CC2)n(C)c1=O,inactive: 0.982
14,Cc1ccccc1S(=O)(=O)N1C[C@@H](O)COC[C@H]2O[C@H](CC(=O)N3CCOCC3)CC[C@@H]21,inactive: 1
15,COc1ccc(NC(=O)Nc2ccc3c(c2)C(=O)N([C@H](C)CO)C[C@H](C)[C@@H](CN(C)Cc2ccc(C(=O)O)cc2)OCCCC[C@@H](C)O3)cc1,inactive: 1.01
16,O=C(C[C@@H]1C[C@H]2c3cc(NC(=O)Nc4ccccc4)ccc3O[C@H]2[C@@H](CO)O1)NCCN1CCCCC1,inactive: 1
17,COc1ccc(N2C(=O)C[C@@H](c3ccc(Br)cc3)[C@H]2C(=O)Nc2cccc3cccnc23)cc1,inactive: 1.02
18,Cl.NC(=O)CCC(N)C(=O)O (configuration not stated),inactive: 1.03
19,C[C@@H]1CCCCO[C@H](CN(C)C(=O)Nc2ccc(F)cc2)[C@@H](C)CN([C@H](C)CO)C(=O)c2cc(NC(=O)c3ccccc3)ccc2O1,inactive: 1.04
20,C=CCNC(=O)[C@H]1[C@@H]2C(=O)O[C@@H](c3ccccc3)[C@@H](c3ccccc3)N2[C@@H](c2ccc(O)cc2)[C@]12C(=O)N(C(=O)OCCOC)c1ccc(C#CC3(O)CCCCCC3)cc12,inactive: 1.02
